In the supplement of paper PMC3334620:
Whole data set: some 33,000 sequences, median “E-score (-0.5 to 0.5)” near -0.04, cut for the highest 2% near 0.36. The list shows a part of the results.

What follows are sequences tested against T1, Hmlalpha2 (UniProt P0CY09) (assay: PBM E-score (8-mer binding enrichment) (E-score (-0.5 to 0.5)); higher = stronger / more preferred TF binding; most listed sequences are background and not binding sites). Settings: protein concentration: 200 nM; construct: GST-full length.
T1 sequence: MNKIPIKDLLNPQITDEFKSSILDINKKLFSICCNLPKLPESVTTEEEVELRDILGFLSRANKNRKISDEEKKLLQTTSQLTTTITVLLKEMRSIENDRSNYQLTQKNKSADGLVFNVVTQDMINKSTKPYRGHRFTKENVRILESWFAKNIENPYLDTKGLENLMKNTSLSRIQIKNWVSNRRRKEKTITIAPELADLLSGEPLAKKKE
Method: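 Universal 'all 10-mer' protein binding microarrays (Agilent AMADID 015681) probed with GST-tagged S. cerevisiae TFs (full-length or DBD) made by in vitro transcription/translation (PURExpress), about 100-200 nM. Bound TF was detected with fluorescent anti-GST. Each ungapped 8-mer (which stands for itself and its reverse complement) is scored by the PBM enrichment score (E-score), a modified Wilcoxon-Mann-Whitney statistic from -0.5 to +0.5, computed with the Universal PBM Analysis Suite. Scale: above 0.35 generally sequence-specific binding.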

Sequence	PBM E-score
AACTTCCA	-0.0149
ATGATCTC	-0.111
CAACCGCA	-0.0431
CACCACCC	-0.155
CGTACTTA	0.172
AACTTGGG	-0.199
GACCGCCA	-0.119
AAGCTCGC	-0.047
CGTGAGTA	0.0575
AAATAGTC	-0.143
GAGAAGGC	-0.242
CGAGGTGA	-0.103
GGAATCTA	-0.132
CCATGGGG	-0.116
CACTCCCC	-0.117
CACTCTGG	-0.109
AGCCAATA	0.0379
CATATTGG	0.0466
CTTGGCGC	-0.0914
CGATAGAA	-0.136
GAAATCAA	-0.0375
CAGTTCGC	-0.182
AATAAAGC	-0.0138
AGACCCGC	-0.0103
AGGATCGG	-0.107

Sequence	PBM E-score
TAAATCAA	0.158
GATCAGCA	-0.155
ACCGGAGG	-0.147
AGACCCCA	-0.227
ACAGAGGA	-0.0117
TGAGCCCA	-0.171
ATGAGACG	-0.154
ACGGATCG	-0.0949
ACGGTCTA	-0.0135
GCACGGAC	-0.0335
ACGTATTG	0.292
TGCTTACA	0.305
CGCGTCTA	0.191
AGCAACAG	-0.0259
GCTCCGGA	-0.136
CTGACACA	0.124
CACTGTAA	0.171
ATAAGAAG	-0.00544
ACAAGAGT	0.128
ATGTTCAG	0.187
CATTACTA	0.225
ATACGCCC	-0.166
GAGGGGGC	-0.37
CAAGCAGC	0.00857
ATCCACGA	0.0346

Sequence	PBM E-score
AGGTTCTA	-0.0454
AAAATGCT	0.063
GGAGTTAA	0.0478
ATCAGTGA	0.0117
CGATGTCC	-0.211
CCTATGAC	-0.234
CGTGGTCC	-0.0571
AGAAGGTA	0.105
AGTTGAGC	-0.0253
CTGGCGAA	-0.103
CCACAGGG	-0.191
AAGTCGAG	-0.0575
GTTTAGAA	0.156
GTTCATTA	0.167
GGCCCGCC	-0.354
CAGTCTTA	0.0157
CATTGCTC	-0.237
GAAAATAA	0.158
AACTAAGC	0.144
ACCAGGTG	-0.11
GAGACCCA	-0.279
GAAAACTC	0.167
ATTCGTTC	0.025
AGAAGGAC	-0.207
CTGAGATC	-0.258

Sequence	PBM E-score
ATCTGAGC	-0.0204
CGAGGCAG	-0.23
ATTTCAAC	0.223
TCATGCGA	-0.0821
AAGTTGGG	-0.117
ACGACGGA	-0.0664
CAGGGAGA	-0.194
TACCTCTA	0.0624
CTCCGAGA	-0.119
ATTTCGCG	0.135
GGAAACTA	-0.172
AACTCTGC	-0.215
CAACCCGA	-0.0172
AAACTACC	-0.00289
AGGAGTGA	-0.0561
ATTAATTA	0.243
ACGTGGCC	-0.0936
CGTTTCGA	0.0352
ACGCGAAG	0.217
AAACACGG	0.371
AGAGGGGG	-0.314
ACATGGCA	0.364
ACATTGTG	0.193
CAAGCACG	0.0774
AACCCCAT	-0.0917

Sequence	PBM E-score
GACTCCCC	-0.32
AACCCCAC	-0.162
GCGGCGTA	-0.0122
AAGAATGA	0.0309
GCGACAGC	-0.266
AAGATGCT	-0.0878
ACTCCAGC	-0.291
CCAATCCA	-0.197
CCCGTCCG	-0.301
CCTCGACG	-0.172
CGGCCCAG	-0.286
ACCGTCAT	-0.0314
ACCACTAG	-0.134
AACCTTGT	0.101
CGCTAGCG	-0.205
CAGGGGTA	-0.217
TCTTCCCA	-0.178
TACCGATA	-0.0558
CAATTTTA	0.112
AGGGTTGG	-0.0105
AATTGTCT	0.0105
GCCTCAGA	-0.2
CGAACTCC	0.111
CAACCCCG	-0.26
GCGGACAC	-0.0951

Sequence	PBM E-score
GCCTATAA	-0.121
AACCCAGC	0.0236
AAAGCTGG	-0.134
AGAATTTG	-0.0388
GTGTCAAC	0.305
CACAGTCG	-0.0552
ATGCAACA	0.265
AACCAGGG	-0.0827
TATATCCA	0.0304
GTAGGAAA	0.103
AGCTCCCG	-0.352
CATTCAAA	0.0527
ATATATAC	0.345
GCTCCGTA	-0.0781
CGCTGCAC	-0.00467
CTGTTAAA	0.258
GCCGTAAC	-0.0564
ACCAGGGG	-0.359
AAATCGAG	-0.0386
CCATGTAC	0.398
CGGCCTTC	-0.183
ACTAATAC	0.265
GGTTTGTA	0.259
CGGCACAA	0.00623
AAATCCGC	-0.125

Sequence	PBM E-score
GACCCACA	-0.0821
AGATGTTC	0.0875
ACAATTCG	0.129
CCGCCCGA	-0.212
ATACGAAA	0.212
CAAGCCAC	-0.174
AGACCCTA	-0.145
ATTCAGCG	-0.0822
AAATACGC	0.31
AAGTCTTC	-0.0639
CATTTTTC	0.0489
CAGGTATC	-0.166
ATTACAAA	0.414
TCACCACA	-0.0321
AACAATAC	0.307
ACAAGAGC	0.139
GTGCGTAA	0.406
CAGACAGC	-0.154
AATTCCTG	-0.0426
ATGTATTG	0.416
AGTTACGG	-0.207
AATGCGCA	-0.00584
